The values below come from US10064939B2, “Combination therapy using c-Met inhibitor and IGF-1R inhibitor for c-Met inhibitor resistant cancers” (Samsung Electronics Co., Ltd., priority 2014, dated 2018).

What all share (conditions): rank among the four antibodies of Reference Example 1.7
Assay [1] has as its target T1, c-Met (Homo sapiens, UniProt P08581). Briefly: c-Met degradation degree. In kind it is cell-based.
Assay [2] concerns Akt phosphorylation. In words: Akt phosphorylation. In kind it is cell-based.
For assay [3], the target named is T1, c-Met. Briefly: Affinity for c-Met of affinity-matured antibodies. In kind it is binding.

T1 sequence (P08581 25-1390): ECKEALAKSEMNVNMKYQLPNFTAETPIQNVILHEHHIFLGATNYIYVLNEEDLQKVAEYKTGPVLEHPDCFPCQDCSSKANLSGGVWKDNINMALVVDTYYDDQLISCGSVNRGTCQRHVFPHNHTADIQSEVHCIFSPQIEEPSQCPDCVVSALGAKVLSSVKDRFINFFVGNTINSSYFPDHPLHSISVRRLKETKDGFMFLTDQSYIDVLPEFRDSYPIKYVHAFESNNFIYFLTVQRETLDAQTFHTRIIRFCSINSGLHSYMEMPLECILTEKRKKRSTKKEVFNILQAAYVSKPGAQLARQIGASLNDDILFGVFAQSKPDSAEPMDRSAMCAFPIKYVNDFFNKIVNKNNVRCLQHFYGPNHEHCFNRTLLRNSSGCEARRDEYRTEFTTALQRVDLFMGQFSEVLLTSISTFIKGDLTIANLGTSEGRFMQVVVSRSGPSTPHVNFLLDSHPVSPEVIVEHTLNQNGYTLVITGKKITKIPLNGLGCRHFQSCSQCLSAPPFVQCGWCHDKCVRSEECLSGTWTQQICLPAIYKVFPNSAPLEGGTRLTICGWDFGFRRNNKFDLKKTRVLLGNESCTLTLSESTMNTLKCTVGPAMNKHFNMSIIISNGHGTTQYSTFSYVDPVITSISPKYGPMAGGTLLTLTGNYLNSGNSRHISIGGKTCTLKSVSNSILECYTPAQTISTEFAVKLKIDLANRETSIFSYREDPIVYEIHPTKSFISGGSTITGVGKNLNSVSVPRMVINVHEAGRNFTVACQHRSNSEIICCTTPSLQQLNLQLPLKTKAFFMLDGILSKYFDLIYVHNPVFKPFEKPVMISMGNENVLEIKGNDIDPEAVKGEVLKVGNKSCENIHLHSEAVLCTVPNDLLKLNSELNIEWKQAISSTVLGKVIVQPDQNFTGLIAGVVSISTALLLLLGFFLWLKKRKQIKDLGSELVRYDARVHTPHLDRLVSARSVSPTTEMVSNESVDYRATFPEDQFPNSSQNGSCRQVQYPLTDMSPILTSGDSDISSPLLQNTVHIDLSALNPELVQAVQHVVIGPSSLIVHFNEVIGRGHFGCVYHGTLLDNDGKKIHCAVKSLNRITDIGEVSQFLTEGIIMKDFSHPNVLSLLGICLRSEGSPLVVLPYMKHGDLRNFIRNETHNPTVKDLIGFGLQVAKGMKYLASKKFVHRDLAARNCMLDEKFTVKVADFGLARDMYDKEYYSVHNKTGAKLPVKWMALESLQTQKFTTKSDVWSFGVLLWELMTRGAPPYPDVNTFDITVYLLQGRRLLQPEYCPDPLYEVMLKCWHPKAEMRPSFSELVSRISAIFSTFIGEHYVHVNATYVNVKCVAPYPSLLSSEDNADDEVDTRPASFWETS

B1: huAbF46-H4-A1: affinity-matured humanized anti-c-Met antibody, L3-1 origin (CDR-L3 SEQ ID NO: 13), U6-HC7 hinge (antibody)
heavy: EVQLVESGGGLVQPGGSLRLSCAASGFTFTDYYMSWVRQAPGKGLEWLGFIRNKANGYTTEYSASVKGRFTISRDNSKNTLYLQMNSLRAEDTAVYYCARDNWFAYWGQGTLVTVSSASTKGPSVFPLAPSSKSTSGGTAALGCLVKDYFPEPVTVSWNSGALTSGVHTFPAVLQSSGLYSLSSVVTVPSSSLGTQTYICNVNHKPSNTKVDKKVEPKSCDCH[human IgG1 Fc left out]
light: DIQMTQSPSSLSASVGDRVTITCKSSQSLLASGNQNNYLAWHQQKPGKAPKMLIIWASTRVSGVPSRFSGSGSGTDFTLTISSLQPEDFATYYCQQSYSRPYTFGQGTKVEIKRTVAAPSVFIFPPSDEQLKSGTASVVCLLNNFYPREAKVQWKVDNALQSGNSQESVTEQDSKDSTYSLSSTLTLSKADYEKHKVYACEVTHQGLSSPVTKSFNRGEC
In the case of B1, the c-Met degradation degree entry in assay [1] is reported as “lowest”. The Akt phosphorylation entry in assay [2] is given as “lowest”. Moreover, the “affinity for c-Met” value in assay [3] was “highest”.
